Source: PubChem BioAssay AID687022 (Broad Institute, 2013)
Screen size: about 1,000 compounds; about 360 (36%) were called active.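 How the source made its calls: active means Fitted curve of melting temperature shift crosses the 1.0 threshold at or below the sample's highest valid tested concentration; inconclusive means Flat fit with activity 30 to 70, or invalid fit; inactive means Opposite direction, flat within 30, or no crossing.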 The list lacks most of the strong results.

Each compound was assayed against Fibroblast growth factor 22 (Homo sapiens) (UniProt Q9HCT0) (assay: binders of human FGF22 protein, dose response, FGF22 synaptogenesis inhibitor project, biophysical, thermal shift, cherry-pick (AID 687022; further: reference of the scale not given here)). Settings: recombinant FGF22 thermal shift, SYPRO orange melting; at 38 µM (top of the series) unless noted.
Chain of UniProt Q9HCT0 (Q9HCT0 whole entry, looked up): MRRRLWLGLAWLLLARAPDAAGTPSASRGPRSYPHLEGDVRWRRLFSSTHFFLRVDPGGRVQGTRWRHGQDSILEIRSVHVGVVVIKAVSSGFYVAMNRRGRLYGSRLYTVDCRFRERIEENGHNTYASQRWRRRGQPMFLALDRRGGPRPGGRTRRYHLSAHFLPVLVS

SMILES | Tm shift activity
C[C@@H]1CN([C@@H](C)CO)C(=O)c2cc(NC(=O)C3CC3)ccc2O[C@@H]1CN(C)C(=O)Nc1ccc2c(c1)OCO2 | inactive: 0.089% [at 42 µM]
O=C(O)c1cc2cccc(S(=O)(=O)N3CCCCC3)c2cc1O | inactive: 0.828% [at 5 µM]
CCCN1C[C@H](C)[C@H](OC)CN(C)C(=O)c2cc(NC(=O)c3cnccn3)ccc2OC[C@@H]1C | inactive: -0.196%
COc1ccccc1-c1cnc2c(c1)C(=O)N([C@@H](C)CO)C[C@H](C)[C@H](CN(C)C(=O)c1cccnc1)O2 | inactive: 0.195%
COCC(=O)N(C)C[C@H]1Oc2cc(C#Cc3ccccc3)ccc2S(=O)(=O)N([C@H](C)CO)C[C@H]1C | inactive: 0.274% [at 42 µM]
Cc1nc(NC(=O)C2CC2)sc1C(=O)Nc1ccccc1Cl | inactive: -0.05%
Cn1cnc(S(=O)(=O)N2C[C@H](O)COC[C@@H]3O[C@@H](CC(=O)NCc4ccc(F)cc4)CC[C@H]32)c1 | inactive: -0.209% [at 42 µM]
COc1ccc(CN(C)C[C@H]2Oc3c(NS(C)(=O)=O)cccc3C(=O)N([C@@H](C)CO)C[C@H]2C)cc1 | inactive: 0.721%
COCC(=O)Nc1ccc2c(c1)[C@@H]1C[C@@H](CC(=O)NCc3ccccn3)O[C@@H](CO)[C@@H]1O2 | inactive: -0.139% [at 42 µM]
C[C@@H]1CN([C@@H](C)CO)C(=O)CCCn2nncc2CO[C@@H]1CN(C)S(=O)(=O)c1ccc(F)cc1 | inactive: 0.073% [at 42 µM]
COc1ccc(C(C)(NC(C)=O)c2nc(-c3ccncc3)cs2)cc1 (stereo not drawn) | inactive: -0.006%
CC(C)(C)N1C(=O)c2c(C(=O)OCc3ccccc3)[nH]c(-c3ccccc3)c2C1=O | inactive: -0.306%
CN1C(=O)c2cccc3c(N)ccc(c23)C1=O | inactive: 0.027% [at 5 µM]
CCC(=O)N1CCCCN2[C@H](CO)[C@@H](c3ccc(C#Cc4ccccc4F)cc3)[C@H]2C1 | inactive: -0.546% [at 42 µM]
COc1ccc(C2=NN(c3ccccc3)C(c3cn(CCC(=O)O)nc3-c3ccccc3)C2)cc1 (stereo not drawn) | inactive: -0.245% [at 19.5 µM]
O=C(Nc1cccc(F)c1)N1CC(=O)N2[C@@H](CO)[C@@H](c3ccc(Br)cc3)[C@@H]2C1 | inactive: 0.352% [at 42 µM]
CC(C)C(c1nnnn1CCc1ccccc1)N1CCSCC1 (stereo not drawn) | inactive: -0.187%
COc1ccc(NC(=O)N(C)C[C@@H]2Oc3ccc(NS(=O)(=O)c4cccs4)cc3CC(=O)N([C@H](C)CO)C[C@H]2C)cc1 | inactive: -0.023%
